The chains are these.
B1: GPR68, Q15743 (parent)
chain: MGNITADNSSMSCTIDHTIHQTLAPVVYVTVLVVGFPANCLSLYFGYLQIKARNELGVYLCNLTVADLFYICSLPFWLQYVLQHDNWSHGDLSCQVCGILLYENIYISVGFLCCISVDRYLAVAHPFRFHQFRTLKAAVGVSVVIWAKELLTSIYFLMHEEVIEDENQHRVCFEHYPIQAWQRAINYYRFLVGFLFPICLLLASYQGILRAVRRSHGTQKSRKDQIQRLVLSTVVIFLACFLPYHVLLLVRSVWEASCDFAKGVFNAYHFSLLLTSFNCVADPVLYCFVSETTHRDLARLRGACLAFLTCSRTGRAREAYPLGAPEASGKSGAQGEEPELLTKLHPAFQTPNSPGSGGFPTGRLA

In data set [1] the parent is B1. Description: cAMP reporter score (Enrich2 score, wild type = 0); higher = more signal; HEK293T, FACS bins.
In data set [2] the parent is B1. Kind of data set: surface expression score (Enrich2 score, wild type = 0); higher = more signal; HEK293T, FACS bins.

Scores with a large standard error are left out. Not listed are two conditions whose scores span a narrow range. In variant names, del marks residues removed and ins residues inserted between the two positions. For some of these results: The concentration of ogerin is not given here.

As to MGNITADNSSMSCTIDHTIHQTLAPVVYVTVLVVGFPANCLSLYFGYLQIKARNELGVYLCNLTVADLFYICSLPFWLQYVLQHHNWSHGDLSCQVCGILLYENIYISVGFLCCISVDRYLAVAHPFRFHQFRTLKAAVGVSVVIWAKELLTSIYFLMHEEVIEDENQHRVCFEHYPIQAWQRAINYYRFLVGFLFPICLLLASYQGILRAVRRSHGTQKSRKDQIQRLVLSTVVIFLACFLPYHVLLLVRSVWEASCDFAKGVFNAYHFSLLLTSFNCVADPVLYCFVSETTHRDLARLRGACLAFLTCSRTGRAREAYPLGAPEASGKSGAQGEEPELLTKLHPAFQTPNSPGSGGFPTGRLA [D85H], the cAMP reporter score in data set [1] (pH 5.5) is -0.175; in data set [1] (pH 6), 0.789; in data set [1] (pH 6, modulator: ogerin), -0.472; in data set [1] (pH 6.5, modulator: ogerin), 0.189. The surface expression score in data set [2] was -0.757.

For the variant MGNITADNSSMSCTIDHTIHQTLAPVVYVTVLVVGFPANCLSLYFGYLQIKARNELGVYLCNLTVADLFYICSLPFWLQYVLQHGNWSHGDLSCQVCGILLYENIYISVGFLCCISVDRYLAVAHPFRFHQFRTLKAAVGVSVVIWAKELLTSIYFLMHEEVIEDENQHRVCFEHYPIQAWQRAINYYRFLVGFLFPICLLLASYQGILRAVRRSHGTQKSRKDQIQRLVLSTVVIFLACFLPYHVLLLVRSVWEASCDFAKGVFNAYHFSLLLTSFNCVADPVLYCFVSETTHRDLARLRGACLAFLTCSRTGRAREAYPLGAPEASGKSGAQGEEPELLTKLHPAFQTPNSPGSGGFPTGRLA [D85G], the cAMP reporter score in data set [1] (pH 5.5) is -0.111; in data set [1] (pH 6), -0.485; in data set [1] (pH 6, modulator: ogerin), 0.335; in data set [1] (pH 6.5, modulator: ogerin), -0.346. For the same variant, the surface expression score in data set [2] is 0.725.

Source of the values: the GPR68 mutational scans of Howard et al. (2025).
